# Measurements as given in paper PMC4242493.
# This is one part of the list. The list includes weakly bound sequences.
# Biological target: MaxL homodimer (UniProt P61244)
# Experiment: universal protein-binding microarray (PBM)
# Conditions: PBS-based mixture, 10 nM His-tagged protein dimer, 2% milk, 200 ng/uL BSA, 50 ng/uL salmon testes DNA, 0.02% TX-100; detection with Alexa 488 anti-His …; high values mean tight binding; most listed sequences are background and not binding sites; double strand, one strand shown
# Sequence of UniProt P61244 (P61244 whole entry): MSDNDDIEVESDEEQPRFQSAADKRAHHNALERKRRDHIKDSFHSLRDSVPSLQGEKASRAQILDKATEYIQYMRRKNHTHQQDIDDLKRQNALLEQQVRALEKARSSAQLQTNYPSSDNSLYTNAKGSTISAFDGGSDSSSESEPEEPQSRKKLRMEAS
row,Sequence,binding signal (normalized occupancy)
1,AAGCACCA,0.0761
2,CTCTTTAA,0.0713
3,GGTCCCTA,0.0685
4,AGAGCTTG,0.0716
5,CCACCAGC,0.0738
6,ACTTCATA,0.0773
7,AAAGCACC,0.0715
8,CGCTCCGC,0.0639
9,CATTCCTA,0.0755
10,CGGCTGGC,0.0661
11,GCTAGCAC,0.074
12,CCGGCAAC,0.0711
13,AGTAATTC,0.075
14,CTCTGACC,0.0702
15,AAGAAGGC,0.0751
16,TGACACCA,0.0783
17,CAGAGGAC,0.0665
18,GACGAATA,0.0754
19,ACCCATAT,0.088
20,CAACTTCA,0.0784
21,GGCTGGGA,0.0757
22,GTCGTCAC,0.0812
23,CCAACGAC,0.0765
24,CACGGGAG,0.0792
25,CGCCGCCC,0.0695

row,Sequence,binding signal (normalized occupancy)
1,TAATGGGA,0.076
2,CAAACCGA,0.0737
3,ATGCGCGA,0.0781
4,ATTCTCAC,0.0833
5,GAAATTTC,0.0689
6,ACCCGTCT,0.0741
7,GACTTCCC,0.0716
8,GCCTAGCA,0.0681
9,AGCGTTTA,0.0743
10,AATCCCTC,0.0712
11,AGACCCCT,0.0755
12,ATATGCAG,0.0833
13,AAGTATAT,0.0749
14,CAAAGACC,0.0706
15,CGTCCCAG,0.0755
16,CACAGCGC,0.0708
17,GCATTAGA,0.0735
18,AAGCTTGG,0.0674
19,GCCGTCAA,0.0726
20,AAATTGTG,0.0741
21,ACTCTTTC,0.0667
22,ATGCTAAA,0.0751
23,TGACTGCA,0.0743
24,ACCAAGTC,0.071
25,ACAAGTTC,0.0695

row,Sequence,binding signal (normalized occupancy)
1,ATCATAGG,0.0774
2,ATATTTTG,0.0779
3,TCTCCGCA,0.0723
4,ACTTCCGC,0.0759
5,CCAGGTTA,0.0778
6,CCGCAATC,0.0712
7,CCAGAGAC,0.0699
8,ATCATGAC,0.0868
9,AGGGCTGC,0.0669
10,ACGGTTCT,0.071
11,GCAAGCGA,0.0697
12,AACGACGC,0.073
13,GGAAGGAC,0.0715
14,ATTTACGC,0.0786
15,CGCGTCGA,0.0756
16,CAGAACAC,0.0765
17,AAAATAAC,0.0773
18,GAATTTAC,0.0767
19,ATTTGCAG,0.0761
20,GAGCCGAA,0.0662
21,CCTACAGC,0.0762
22,CTTGACTA,0.0726
23,CAGTCCTC,0.084
24,TCATGCCA,0.0861
25,CGATTCGC,0.0738

row,Sequence,binding signal (normalized occupancy)
1,CTAGTAGA,0.0718
2,GATTTGCC,0.0729
3,TAGACATA,0.0807
4,AGTTACAT,0.0831
5,ATACTCTC,0.0748
6,AAGACTTG,0.0731
7,ACTGGGCA,0.0727
8,AAGTCAGC,0.0693
9,ACATGAAG,0.0842
10,ACTGATTC,0.0736
11,ACATGAGA,0.0971
12,CGTTTTTC,0.0708
13,CCCGTAAC,0.0739
14,GAAACAGA,0.069
15,AATATGTC,0.0853
16,GTGAATCA,0.0763
17,ACTTCAAG,0.0754
18,ACTACTCA,0.074
19,ATGGGAAA,0.0774
20,ACAGGGAC,0.0671
21,AAAGATTC,0.0828
22,AGATCCCA,0.0773
23,ATAAGTTG,0.0731
24,ACTGGTCC,0.0753
25,GACGTTCA,0.0818

row,Sequence,binding signal (normalized occupancy)
1,CCGCGGCC,0.0671
2,ATGCGGCG,0.0869
3,ATCAATCA,0.0797
4,CAAGAAGC,0.0667
5,TCCCCCGA,0.0718
6,ACTTCCTC,0.0744
7,AGATGATG,0.0818
8,ACGGGAGG,0.0755
9,GTCACCGA,0.0699
10,GGGTCACA,0.0805
11,AGACTCCG,0.0712
12,AACTCGGG,0.0744
13,AACCTCAG,0.0714
14,CCGGTAGG,0.0697
15,AATGTACC,0.0821
16,CTTGCGAA,0.0737
17,GTGAATAA,0.0848
18,CGAGATTA,0.0734
19,GATGGGAA,0.078
20,ACCATAAT,0.0803
21,AGGAACGC,0.0729
22,CTTGCGCA,0.0752
23,AATTAGCA,0.0695
24,ACACGCCT,0.0971
25,GTGGAGCA,0.0811

row,Sequence,binding signal (normalized occupancy)
1,AACGTGAT,0.11
2,ACCGAGCT,0.0712
3,AGGATCCG,0.0689
4,ACCGTCCC,0.0745
5,CTTATTGA,0.0757
6,ACCAAGCT,0.0716
7,ATTGACTC,0.0745
8,TCCAGCAA,0.0778
9,CTTTGCTC,0.0686
10,GTAGGCAC,0.0721
11,GCCTTTCC,0.071
12,GGGCTGTA,0.0762
13,GAGTACGA,0.0735
14,ACTATAGG,0.0744
15,GGTAAAGA,0.0763
16,GAAACCTA,0.073
17,GGGAACCC,0.0679
18,CCAGTTGC,0.0718
19,CAGATGTC,0.0827
20,GCTATAGC,0.0697
21,GTGTGCCA,0.0808
22,ATAGCGTC,0.0734
23,GATTCTGA,0.0722
24,GATAATTA,0.0822
25,CACCAAAG,0.0696

row,Sequence,binding signal (normalized occupancy)
1,GTTTACTA,0.0818
2,ATCGGGCC,0.0723
3,GGTGATAA,0.0814
4,ATCTACAA,0.0772
5,ACATTCAA,0.0775
6,CCGCTAGC,0.0662
7,ACAGTCAC,0.0821
8,CCATCTTC,0.0717
9,ACCTACAG,0.0776
10,CCTATTTC,0.0789
11,AAAGGTCA,0.0749
12,AACGTTAA,0.0701
13,CTGGCGAA,0.0672
14,ATTACCGA,0.0757
15,ATACCCGA,0.0753
16,ATTGCCTC,0.0778
17,GAACCGGA,0.0659
18,CATGCAGA,0.0959
19,GCGCCCCA,0.074
20,GCACAAGA,0.078
21,GCACTATA,0.0783
22,CATAATGA,0.0823
